# Measured values published in PubChem BioAssay AID1346428 (National Center for Advancing Translational Sciences (NCATS), 2018).
# Several values for one entry are separate records, joined by “and”; a condition that tells them apart may be missing. Identical values can stand only once. Hit rate of the full screen: of about 48,000 compounds, about 1,200 (2.5%) were called active. About 2% were inconclusive and are not listed.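 The calls were made as follows: active = activation of at least 60% and not above a set upper limit (about 1 call in 100 departs from these limits); inconclusive = activation of 40% to 60%, or above that upper limit; inactive = activation under 40%.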 The list shows a part of the results.
# Molecular target: Probable G-protein coupled receptor 32 (Homo sapiens) (UniProt O75388)
# UniProt O75388, sequence (O75388 whole entry, looked up): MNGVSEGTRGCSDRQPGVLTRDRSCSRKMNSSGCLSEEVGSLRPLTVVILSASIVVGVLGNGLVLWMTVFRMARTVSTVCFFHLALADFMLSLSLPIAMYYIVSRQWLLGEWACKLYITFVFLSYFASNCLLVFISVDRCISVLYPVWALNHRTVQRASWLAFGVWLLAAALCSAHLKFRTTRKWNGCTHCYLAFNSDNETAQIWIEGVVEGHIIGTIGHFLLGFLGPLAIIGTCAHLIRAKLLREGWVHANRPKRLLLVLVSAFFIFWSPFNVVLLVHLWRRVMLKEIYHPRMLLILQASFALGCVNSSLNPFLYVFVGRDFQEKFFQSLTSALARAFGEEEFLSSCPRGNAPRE
# Assay: qHTS for Agonists of Human Resolvin D1 Receptor DRV1; also: 0% is about no effect
# Details: CHO-K1 GPR32 beta-arrestin PathHunter luminescence, 90 min; at 76.9 µM; stronger effect = higher value; zero percent set by DMSO-only wells
# Procedure, shortened: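 Cells are plated overnight, treated with compounds in DMSO for 90 minutes at 37 °C, and developed with PathHunter detection reagent for 1 hour before luminescence is read; signal reflects beta-arrestin binding to GPR32 in engineered CHO-K1 cells.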
row,Compound,activation
1,O=C(NC1CC(=O)N(c2ccccc2)C1)c1cccs1 (centres undefined),inactive: 0.0942%
2,COc1ccc(NS(=O)(=O)c2ccc(N)cc2)nn1,inactive: 14.2%
3,COc1ccc(-c2nc(CCNC(=O)Cc3ccc(F)cc3)cs2)cc1,inactive: -16.3%
4,Nc1ccc(C(=O)NCC(=O)O)cc1,inactive: 2.97%
5,c1ccc(CNc2ncnc3[nH]ncc23)cc1,inactive: 36.6%
6,CCOC(=O)N1CCc2c(sc3c2c(=O)n(CCc2ccccc2)c(=O)n3Cc2ccc(C)cc2C)C1,inactive: -13.8%
7,Cc1cccc(C(=O)Nc2nc3c(s2)CCCC3)c1,inactive: -12.4%
8,CCOCCc1nn2c(=O)cc(COC(=O)c3ccccc3NC(=O)c3cccs3)nc2s1,inactive: -8.46%
9,CSc1ccc(CCNC(=O)c2ccc3c(c2)nc2n3CCC(C)C2)cc1 (centres undefined),inactive: -6.48%
10,COc1ccc(N2CCN(C(=O)c3c(C)nn(-c4ccc(F)cc4)c3-n3cccc3)CC2)cc1,inactive: -5.44%
11,CCc1ccccc1NC(=O)N1CC(CC)Oc2ccc(Cl)cc21 (centres undefined),inactive: -20.3%
12,COc1ccc(CCNC(=O)c2cc3cccc4c3n2CC(C)S4)c(OC)c1OC (centres undefined),inactive: -24.3%
13,CCCC(=O)Nc1c(C(=O)N2CCN(c3ccccc3)CC2)oc2ccccc12,inactive: -20.4%
14,CC(C)c1ccc(S(=O)(=O)Nc2cc3c(cc2NCc2ccccc2)n(C)c(=O)n3C)cc1,inactive: 46.7%
15,COc1ccccc1C(=O)N1CCC(c2c[nH]c3ccccc23)(c2c[nH]c3ccccc23)CC1,inactive: -35.9%
16,O=C(CSc1nc(-c2ccccc2)[nH]c1-c1ccc(F)cc1)NC1CCCC1,inactive: -19.7%
17,CCC(=O)N1CCc2cc(S(=O)(=O)NC(Cc3ccccc3)C(=O)Nc3ccc(Cl)cc3)ccc21 (centres undefined),inactive: -17.5%
18,CCOc1ccccc1NC(=O)Cn1c(=O)n(Cc2ccco2)c(=O)c2cccnc21,inactive: -18.7%
19,CC(C)(C)c1ccc(C(=O)Nc2ccc3nc(SCC(=O)N4CCCC4)sc3c2)cc1,inactive: 24.6%
20,COc1ccccc1C(=O)CC1(O)C(=O)N(CC(N)=O)c2ccccc21 (centres undefined),inactive: 0.352%
21,CCc1ccccc1NC(=O)C1=CC(c2ccc3c(c2)OCO3)=NS(=O)(=O)N1C,inactive: -19.7%

row,Compound,activation
1,O=C(CN1C(=O)COc2ccc(S(=O)(=O)N3CCCCCC3)cc21)N1CCN(c2cccc(Cl)c2)CC1,inactive: -18.4%
2,CC(C)(C)OC(=O)N1CCC(c2c(C(=O)O)cnn2-c2ccc(F)cc2F)CC1,inactive: 10.7%
3,O=C(C1COc2cc(S(=O)(=O)Nc3ccc(Cl)cc3)ccc2O1)N1CCCC1 (centres undefined),inactive: -4.39%
4,COc1ccc(C(=O)c2cn(Cc3ccc(F)cc3)c3c(F)cc(F)cc3c2=O)cc1,inactive: 4.22%
5,Fc1ccc(-c2nnc(CN3CCN(c4ccccn4)CC3)o2)cc1,inactive: 1.21%
6,CC(C)NS(=O)(=O)c1ccc(OCC(=O)N2CCN(c3cccc(Cl)c3)CC2)cc1,inactive: 34.8%
7,COc1cc(C2C(C(=O)Nc3ccccc3)=C(C)Nc3nc(SCC(=O)c4ccc(C)cc4)nn32)ccc1O (centres undefined),inactive: 15.6%
8,O=C(Cn1ncc2c3ccccc3n(Cc3ccccc3)c2c1=O)NCc1ccccc1,inactive: 15%
9,COC(=O)c1c(NC(=O)CCCOc2cccc(C)c2)sc2c1CCC(C)C2 (centres undefined),inactive: -3.77%
10,CCc1ccccc1N(C)C(=O)c1cc2c(s1)-c1c(C)cccc1OC2,inactive: -34.3%
11,Cc1ccc(Cn2c(C)c(CNCc3ccccc3F)c(C(=O)O)c2C)cc1,inactive: 13.2%
12,COc1ccccc1C(=O)Nc1ccc(-c2nc3cc(C)cc(C)c3o2)cc1,inactive: -8.3%
13,Cc1ccc(NC(=O)CSc2nc3ccc(NC(=O)c4cccc(Cl)c4)cc3s2)c(C)c1,inactive: -17.2%
14,CCOC(=O)c1ccc(N2C(=O)c3n[nH]c(-c4ccco4)c3C2c2cccc(F)c2)cc1 (centres undefined),inactive: 23%
15,CCC[C@H](N[C@@H](C)C(=O)N1[C@H](C(=O)O)C[C@@H]2CCCC[C@@H]21)C(=O)OCC,inactive: 5.79%
16,CCc1ccc(S(=O)(=O)c2nnn3c2nc(N2CCN(CC)CC2)c2sccc23)cc1,inactive: -4.76%
17,CC(=O)N1CCc2cc(CNS(=O)(=O)c3cccs3)ccc21,inactive: -5.63%
18,COc1ccc(-c2nnc(SCC(=O)Nc3cccc(C)c3)s2)cc1,inactive: 4%
19,CCOC(=O)c1c(NC(=O)CSc2cn(CCNC(=O)c3ccc(OC)cc3)c3ccccc23)sc2c1CCC2,inactive: -0.0515%
20,COc1ccc(NC(=O)CSc2nc(-c3ccccc3)cc(-c3cc(OC)c(OC)c(OC)c3)c2C#N)c(OC)c1,inactive: -4.55%
21,COc1ccccc1-c1cc(C(=O)Nc2c(C)nn(Cc3ccc(Cl)cc3)c2C)no1,active: 72.3%

row,Compound,activation
1,CCCCOC(=O)c1ccc(NC(=O)C2(c3cccs3)CCOCC2)cc1,inactive: 1.21%
2,CCCCN(CCCNC(=O)c1cc(Nc2ccc(OC)cc2OC)nc2ccccc12)Cc1ccccc1,inactive: -4.69%
3,COc1ccc(NC(=O)CSc2nccn2C2CCCC2)cc1OC,inactive: 4.72%
4,Cc1nn(CC(=O)Nc2ccc(C(C)C)cc2)c(=O)c2c(C)n(-c3ccc(Cl)cc3)nc12,inactive: -10.1%
5,COc1ccc(-c2cn3nc(N4CCCC(C(=O)Nc5ccccc5F)C4)sc3n2)cc1 (centres undefined),inactive: -7.84%
6,CCOc1ccccc1N(C)C(=O)c1sc2nc3n(c(=O)c2c1C)CCCC3,inactive: -8.78%
7,COc1ccc(NC(=O)C(c2ccc(OC)cc2)N(C)C(=O)Cc2cccs2)cc1 (centres undefined),inactive: -9.22%
8,Cn1ccc2cc(S(=O)(=O)N3CCN(C(=O)Nc4cccc(F)c4)CC3)ccc21,inactive: 9.86%
9,Cc1ccc(Cn2cc(S(=O)(=O)c3ccccc3)c(=O)c3cc(F)c(N4CCOCC4)cc32)cc1,inactive: -11.3%
10,COc1ccccc1N1CCN(S(=O)(=O)CCNC(=O)c2cc(=O)c3ccccc3o2)CC1,inactive: -12.3%
11,CC(C)(Oc1ccc(Cl)cc1)C(=O)Nc1ccc(-c2nc3ncccc3o2)cc1,inactive: 16.1%
12,CC(C)C(C)(C)C(C)(C)C(C)(C)S,inactive: -34.3%
13,COc1ccc(C(CNC(=O)COc2cc(C)c(Cl)c(C)c2)N2CCCCC2)cc1 (centres undefined),inactive: -12.1%
14,Cc1ccccc1C(=O)Nc1cccc(-c2nc3cccnc3s2)c1,inactive: -4.69%
15,COc1ccc2c(c1)c1c3n2CCN(C)C3=NCC1,inactive: 9.39%
16,O=C(CSc1nc(=O)n(Cc2ccncc2)c2c1CCC2)Nc1ccccc1,inactive: -2.96%
17,COc1cccc(N2CCN(C(=O)CCn3nc(C)c(S(=O)(=O)N4CCCC4)c3C)CC2)c1,inactive: 7.98%
18,COc1ccc(Cn2ccc3nc(C)c(C(=O)Nc4ccc(OC)c(OC)c4)cc3c2=O)cc1,inactive: 12.7%
19,OCCN1CCN(CCCN2c3ccccc3Sc3ccc(Cl)cc32)CC1,inactive: 25.6% and inactive: -28.4%
20,COc1cccc(CNC(=O)CCc2c(C)c3cc4c(C)coc4cc3oc2=O)c1,inactive: 41.7%
21,CCCN(CCC)C(=O)c1c[nH]c2ccc(S(=O)(=O)N(C)c3ccc(Cl)cc3)cc2c1=O,inactive: -8.34%

row,Compound,activation
1,COc1ccc(-c2c3c(=O)n(C)c(=O)n(C)c3c3n2-c2ccccc2NC3c2ccccc2OC)cc1 (centres undefined),inactive: -17.2%
2,COC(=O)c1ccc(NC(=O)c2cc3cc(C)ccc3n2C)cc1,inactive: -5.36%
3,Nc1ccc(S(=O)(=O)c2ccc(N)cc2)cc1,inactive: 2.01%
4,CCOc1ccc(NC(=O)CSc2nnc3c(C)cc4ccccc4n23)cc1,inactive: -7.84%
5,COc1ccc(S(=O)(=O)N2CCC(C(=O)Nc3ccc(Oc4ccccc4)cc3)CC2)cc1OC,inactive: 48.2%
6,CCCCSCCCNC(=O)c1cn(CC)c2ccc(S(=O)(=O)N3CCOCC3)cc2c1=O,inactive: -1.46%
7,COc1ccc(NC(=O)c2ccc(-c3nc(COc4ccccc4)c(C)o3)cc2)cc1,inactive: 3.62%
8,OC[C@H]1O[C@@H](Oc2ccc(O)cc2)[C@H](O)[C@@H](O)[C@@H]1O,inactive: 3.04%
9,Cc1cccc(NC(c2cccc(Cl)c2)c2ccc3cccnc3c2O)n1 (centres undefined),inactive: -13.1%
10,COc1cc(NC(=O)Nc2nnc(N3CCCCC3)s2)cc(OC)c1,inactive: -1.52%
11,COC(=O)c1ccccc1NC(=O)Cn1nc(C)c2nn(-c3ccc(Cl)cc3)c(C)c2c1=O,inactive: -0.0914%
12,CCCn1c2ccccc2c2cnn(CC(=O)Nc3ccccc3OC)c(=O)c21,inactive: -20.6%
13,O=c1c2[nH]c3ccccc3c2nc(SCc2ccccc2F)n1-c1ccc(F)cc1,inactive: 19.3%
14,CCc1ccccc1NC(=O)Cn1nc(-c2cc(C)ccc2C)c2c(c1=O)CCCC2,inactive: -6.22%
15,CC1CCc2nc3ccc(S(=O)(=O)N4CCC(C(=O)NCc5ccccc5Cl)CC4)cc3c(C(=O)O)c2C1 (centres undefined),inactive: -31.7%
16,Cc1nn(-c2ccccc2)c2c1N(CCCC(=O)NCc1ccc(OC(C)C)cc1)C(=O)CS2,inactive: -14.5%
17,Cc1ccc2c(CC(=O)Nc3ccc(S(=O)(=O)N4CCC(C)CC4)cc3)coc2c1,inactive: -4.22%
18,COc1ccc(Cl)cc1NC(=O)C1CCCN(S(=O)(=O)c2ccc3c(c2)CCCC(=O)N3)C1 (centres undefined),inactive: -4.67%
19,Cc1ccc(CNC(=O)c2ccc3oc(=O)n(Cc4ccccc4)c3c2)cc1,inactive: 10.2%
20,Cc1ccccc1OCC(=O)Nc1ccc(OCc2cc(=O)n3ccccc3n2)cc1,inactive: -17.9%
21,O=C(CSc1nc2c(c(=O)[nH]1)CN(Cc1ccc3c(c1)OCO3)CC2)Nc1cc(F)ccc1F,inactive: 37.1%
